The text below walks through data of PubChem BioAssay AID1346428 (National Center for Advancing Translational Sciences (NCATS), 2018).

“And” between values parts separate entries of the source, which are not always exact repeats. Equal values may be shown once. Among all 48,000 compounds or so, about 1,200 (2.5%) were called active. About 2% were inconclusive and are not listed.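 The calls were made as follows: active = activation of at least 60% and not above a set upper limit (about 1 call in 100 departs from these limits); inconclusive = activation of 40% to 60%, or above that upper limit; inactive = activation under 40%.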 The list shows a part of the results.

UniProt O75388, sequence (O75388 whole entry, looked up, the tested form may be a part): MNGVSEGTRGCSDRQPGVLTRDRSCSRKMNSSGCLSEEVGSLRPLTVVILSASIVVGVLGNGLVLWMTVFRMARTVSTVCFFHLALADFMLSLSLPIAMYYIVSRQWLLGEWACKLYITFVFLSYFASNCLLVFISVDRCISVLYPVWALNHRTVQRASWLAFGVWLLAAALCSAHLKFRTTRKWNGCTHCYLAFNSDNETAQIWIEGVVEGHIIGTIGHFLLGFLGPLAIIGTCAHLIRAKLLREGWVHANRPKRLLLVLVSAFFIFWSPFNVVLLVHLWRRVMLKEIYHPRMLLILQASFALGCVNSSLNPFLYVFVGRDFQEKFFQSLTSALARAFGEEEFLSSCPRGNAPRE

The assay has as its target Probable G-protein coupled receptor 32 (Homo sapiens) (UniProt O75388). Briefly: qHTS for Agonists of Human Resolvin D1 Receptor DRV1. Also: 0% is about no effect. The settings on record: CHO-K1 GPR32 beta-arrestin PathHunter luminescence, 90 min; at 76.9 µM; stronger effect = higher value; zero percent set by DMSO-only wells. Put shortly:
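GPR32 activation in stably transfected CHO-K1 cells, detected as beta-arrestin recruitment by enzyme-fragment complementation. Compound exposure: 90 min, 37 °C.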
Consider `CN1C(C(=O)Nc2cccc(O)c2)=CC(c2ccco2)=NS1(=O)=O`, for which the activation was inactive: -12.4%.

With `CC(C)c1ccc(NC(=O)N2c3ccccc3Sc3ccccc32)cc1`, the activation is inactive: -9.72%.

`Cc1cc(C)c(NC(=O)Cn2nnc(S(=O)(=O)c3ccc(C)c(C)c3)c2N)c(C)c1`: the activation was inactive: 36.3%.

As for `COc1ccc(-c2cc(C(=O)N3CCN(c4ccccc4)CC3)no2)cc1`, the activation is inactive: 43.9%.

With `Cc1c(C(=O)OC2CCCCCC2)[nH]c2c1C(=O)CC(c1ccc(Cl)cc1)C2` (centres undefined), the activation was inactive: -6.5%.

For `Cc1ccc2c(c1)C(=O)OC(C(=O)Nc1ncc(Cc3ccc(Cl)cc3)s1)C2` (centres undefined), the activation was inactive: 13.1%.

Regarding `Cc1nnc(N2C(=O)c3oc4ccccc4c(=O)c3C2c2ccc(Cl)cc2)s1` (centres undefined), the activation is inactive: -4.8%.

With `CCOc1ccc(NC(=O)NCc2cccn2Cc2ccccc2)cc1`, the activation is inactive: 0.202%.

With `O=C(c1ccc2c(c1)CCN2S(=O)(=O)c1ccc(Cl)cc1)N1CCN(c2ccc(F)cc2)CC1`, the activation is inactive: -5.32%.

For the compound `Cc1cccc(C)c1-n1ncc(C(=O)NC2CCCC2)c1C1CCN(C(=O)OC(C)(C)C)CC1`, the activation was inactive: -6.27%.

Take `O=C(COc1ccc(Cl)cc1Cl)Nc1cccc2cccnc12`: the activation was inactive: 21.5%.

With `CC(=O)O[C@]1(C(C)=O)CC[C@H]2[C@@H]3C[C@H](C)C4=CC(=O)CC[C@]4(C)[C@H]3CC[C@@]21C`, the activation was inactive: -5.12%.

Regarding `O=C(O)c1cc(-c2ccccc2)nc2ccccc12`, the activation is inactive: -23.5% and inactive: -25.1%.

Take `Cc1ccc2[nH]c3c(=O)n(CC(=O)N(CCN(C)C)Cc4ccccc4)ncc3c2c1`: the activation was inactive: -38.7%.

With `Clc1cccc(C(c2ccc3nc[nH]c3c2)n2ccnc2)c1` (centres undefined), the activation is inactive: 28.7%.

For `CC(=O)N1CCC(N(Cc2ccco2)C(=O)Nc2ccc(C)c(Cl)c2)CC1`, the activation was inactive: 26.6%.

Take `COc1ccc(Nc2c(-c3ccc(C)o3)nc3cc(C)ccn23)cc1`: the activation was inactive: -0.953%.

For `Cc1cc(C)cc(NC(=O)Cn2cc(C(=O)c3cccs3)c3ccccc32)c1`, the activation was inactive: -16.3%.

As for `Cc1ccc2oc(-c3ccc(C)c(NC(=O)/C=C/c4ccc(Cl)cc4)c3)nc2c1`, the activation is inactive: -2.31%.

For the compound `CCOC(=O)CNC(=O)N1[C@H](c2cccs2)[C@@H](C)C(=O)[C@@H](C)[C@@H]1c1cccs1`, the activation was inactive: -18.1%.

Regarding `Cc1ccc(CNC(=O)c2ccc(CN3CC(=O)N4CCCCC4C3=O)cc2)cc1` (centres undefined), the activation was inactive: -17.1%.

Take `CC(C)NCC(O)c1ccc2ccccc2c1` (centres undefined): the activation is active: 68.2%.

With `COc1cc(NC(=O)c2nc3nc(C)cc(C(F)F)n3n2)c(OC)cc1Cl`, the activation is inactive: 4.86%.

In the case of `CCOc1ccc(N2CC(NC(=O)C3CCCCC3)CC2=O)cc1` (centres undefined), the activation is inactive: -6.51%.

For the compound `CCOC(=O)c1ccc(NC(=O)CCc2c(C)nc3cc(-c4ccc(OC)cc4OC)nn3c2C)cc1`, the activation was inactive: 6.14%.

Consider `COc1cc(C(=O)Nc2ccc(-c3nc4cc(C)c(C)cc4o3)cc2)cc(OC)c1OC`, for which the activation is inactive: 3.43%.

As for `CC(C)Oc1ccc(C(=O)N2CCC(c3nc4ccccc4s3)CC2)cc1`, the activation is inactive: 3.89%.

In the case of `CCOC(=O)c1c(C)oc2nc(C)nc(NCCc3ccc(OCC)cc3)c12`, the activation is inactive: 4.34%.

With `CC1=C(C(=O)NCc2cccc(Cl)c2)C2(CCCCCC2)OC1=O`, the activation was inactive: -18.9%.

On to `CC(=O)Nc1ccc(S(=O)(=O)N2CCC(n3c(C)nc4cccnc43)CC2)cc1`, for which the activation was inactive: 10.7%.

Take `CCC(C)NC(=O)Cn1c(=O)n(-c2cc(OC)cc(OC)c2)c(=O)c2ccccc21` (centres undefined): the activation was inactive: -0.49%.

`COc1ccc(NC(=O)CCCc2nnc3n(C(C)C)c(=O)c4sccc4n23)cc1Cl`: the activation was inactive: 1.02%.

Regarding `CCOc1ccc(CN(CCc2ccc3c(c2)OCO3)Cc2cc(OC)cc(OC)c2)cc1`, the activation was inactive: -29.6%.

Regarding `CCOc1ccc(NC(=O)Cn2cc(C(=O)C3CC3)c3ccccc32)cc1`, the activation was inactive: -2.49%.

For the compound `CCN1CCC(N(Cc2ccc(F)cc2)C(=O)Nc2ccc(C)c(F)c2)CC1`, the activation was inactive: -16.9%.

As to `COc1ccc(C(=O)Nc2ccc(-c3nc4cc(C)ccc4o3)c(O)c2)cc1`, the activation is inactive: 44.3%.

Consider `O=C(CSc1nccn1Cc1ccco1)Nc1ccc(OC(F)(F)F)cc1`, for which the activation is inactive: -11.3%.

With `Cc1cc(=O)[nH]c2nnc(SCc3cccc(C(F)(F)F)c3)n12`, the activation was inactive: 22%.

As for `Cc1nc(N2CCOCC2)c2c(C(=O)N3CCN(c4cccc(C(F)(F)F)c4)CC3)c(C)oc2n1`, the activation is inactive: -19.1%.

Consider `Cc1cccc2nc(-c3ccc(Cl)s3)c(Nc3ccc4c(c3)OCCO4)n12`, for which the activation is inactive: -27.3%.

For `COc1ccc(NC(=O)C(Cc2ccccc2)NS(=O)(=O)c2ccc3c(c2)oc(=O)n3C)c(OC)c1` (centres undefined), the activation is inactive: -1.02%.

Turning to `COc1cc(Cl)c(NC(=O)CN2C(=O)c3cccnc3Sc3ccccc32)c(OC)c1`, the activation was inactive: -21.4%.

Consider `CC(C)c1ccc(NC(=O)Cn2nnc(C(=O)NCCc3ccccc3)c2N)cc1`, for which the activation was inactive: -10.9%.

On to `COc1ccc(OC(=O)c2cc(-c3ccc4c(c3)OCCO4)on2)cc1`, for which the activation is inactive: 2.98%.

On to `Cc1ccc(C)c(NC(=O)CSc2cn(CC(=O)N3CCCCC3)c3ccccc23)c1`, for which the activation is inactive: -15.5%.

As to `CCOc1ccc(NC(=O)Cn2c(=O)nc(-c3ccccc3)c3ccccc32)cc1`, the activation is inactive: -9.29%.

Consider `Cc1nn(-c2ccccc2)c(-n2cccc2)c1C(=O)NCCCN1CCN(c2ccccc2F)CC1`, for which the activation is inactive: 17.7%.

As for `Cc1ccc(OCC(=O)OCc2cc(=O)n3ccsc3n2)cc1C`, the activation was inactive: -9.08%.

Take `COc1ccccc1N1CCN(c2ncc3c(n2)CCN(Cc2ccccc2C)C3)CC1`: the activation is inactive: -10.2%.

Regarding `Cc1nc2ccc(S(=O)(=O)NCC(=O)NCc3ccc(Cl)cc3)cc2s1`, the activation is inactive: -8.3%.

Consider `Cc1ccc(-n2c(-c3ccc(Br)cc3)nc3c(cnn3-c3ccccc3)c2=O)cc1`, for which the activation was inactive: -6.02%.

In the case of `COc1ccc(NC(=O)Cn2c(=O)n(Cc3ccco3)c(=O)c3sc4ccccc4c32)cc1OC`, the activation was inactive: 30.8%.

As for `CC(=O)c1ccc(NC(=O)c2cnc(N3CCCC3)nc2C)cc1`, the activation is inactive: 34.6%.

For the compound `CCOc1cc(C#N)c(NC(=O)c2ccc(OC)c(S(=O)(=O)N3CCCCC3)c2)cc1OCC`, the activation is inactive: -6.62%.

As to `O=C(Cn1c(=O)n(Cc2ccco2)c(=O)c2ccccc21)Nc1cccc(F)c1`, the activation was inactive: -26.7%.

Turning to `CCc1ccccc1NC(=O)Cn1c(=O)n(-c2ccccc2)c(=O)c2oc3ccccc3c21`, the activation is inactive: -14.7%.

`COc1ccccc1N1CCN(S(=O)(=O)c2ccc(-c3coc(C)n3)cc2)CC1`: the activation is inactive: -0.991%.

For `Cc1c2cnn(-c3ccccc3)c(=O)c2c(C)n1CC(=O)Nc1ccccc1Br`, the activation is inactive: -33.9%.

As to `O=C(C1CCCCC1)N(Cc1cccnc1)c1nc2ccc(Cl)cc2s1`, the activation was inactive: -5.6%.

For the compound `Cc1ccc(N2CCN(C(=O)c3cn(C)c4ccc(S(=O)(=O)N5CCC(C)CC5)cc4c3=O)CC2C)cc1` (centres undefined), the activation is inactive: -1.69%.

As for `COc1ccc2c(c1)CC(C(=O)Nc1ccc(Br)c(C)c1)CO2` (centres undefined), the activation was inactive: 2.16%.

For `CCN(C(=O)CSc1nc(-c2ccc(C(C)C)cc2)no1)c1ccccc1`, the activation was inactive: -8.56%.

Take `O=C(Nc1nnc(S(=O)(=O)N2CCCc3ccccc32)s1)c1ccc(Cl)cc1`: the activation was inactive: 35.3%.

For `Cc1ccccc1-c1nc(CS(=O)(=O)CC(=O)NCCCN2CCN(C)CC2)c(C)o1`, the activation is inactive: -3.3%.

Turning to `Cc1c(N(C)CS(=O)(=O)O)c(=O)n(-c2ccccc2)n1C`, the activation is inactive: -44.6%.

Turning to `COc1ccc(C(=O)NCC(=O)OCc2cc(=O)n3nc(C4CCCCC4)sc3n2)cc1`, the activation was inactive: 17.9%.

As to `COc1ccc(NC(=O)CSc2nncn3c2cc2occc23)c(OC)c1`, the activation was inactive: -27.7%.

Consider `COc1ccc(-n2nnc(-c3nc(-c4ccc5c(c4)OCO5)no3)c2C)cc1Cl`, for which the activation was inactive: 2.15%.

With `Cc1ccc(NC(=O)NC(C)c2c(-n3cccc3)sc(C)c2C)c(C)c1` (centres undefined), the activation is inactive: -7.49%.

`Cc1ccc(SCC(=O)Nc2ccc(O)c(-c3nc4cc(C)ccc4o3)c2)cc1`: the activation was inactive: -26.3%.

Turning to `Cc1ccccc1-n1c(SCC(=O)c2ccccc2)nnc1-c1ccc(F)cc1`, the activation was inactive: -18.3%.

For `COc1ccc(NC(=O)c2ccco2)cc1NC(=O)c1cccc(C)c1OC`, the activation was inactive: -12.5%.

As to `O=C(Nc1ccccc1)C1CCN(S(=O)(=O)c2ccc3c(c2)CCCN3C(=O)C2CCC2)CC1`, the activation was inactive: -13.6%.

`Cc1ccc2c(CN3CCN(c4ccc(Cl)cc4)CC3)cc(=O)oc2c1`: the activation was inactive: -14.1%.

Consider `Cc1ccc(CNC(=O)CCCCCn2c(=O)c3sccc3n(CC(=O)C(C)(C)C)c2=O)cc1`, for which the activation was inactive: 4.39%.

In the case of `COc1ccc(Cn2c(CCC(=O)Nc3cc(C)cc(C)c3)nc3cccnc32)cc1`, the activation was inactive: 26.9%.

Consider `CCOc1cc(CNC(=O)CSc2n[nH]c(-c3ccccc3)n2)cc(OCC)c1OCC`, for which the activation was inactive: -7.98%.

For the compound `Cc1ccc(NC(=O)CSc2nc(=O)n(Cc3ccncc3)c3c2CCC3)cc1Cl`, the activation was inactive: -9.3%.

Turning to `Cc1ccc(Cl)cc1N(C)C(=O)c1sc2nc3n(c(=O)c2c1C)CCCC3`, the activation is inactive: -16%.

For the compound `COc1ccc(Nc2ncc(C(=O)Nc3cccc(OC)c3)c3ccccc23)cc1`, the activation was inactive: -20.9%.

`COC(=O)c1cc(NC2(c3ccccc3)C(=O)c3ccccc3C2=O)cc(C(=O)OC)c1`: the activation is inactive: -9.9%.

For the compound `CC1CCN(S(=O)(=O)c2ccc3[nH]ccc3c2)CC1`, the activation was inactive: -16.2%.

As to `Brc1ccc(-c2cn3cc(Cc4ccccc4)sc3n2)cc1`, the activation was inactive: -2.9%.

Regarding `Cn1cc(CCCC(=O)NCc2ccc(F)cc2)c2ccccc21`, the activation was inactive: -26.7%.
